Data taken from PubChem BioAssay AID504332 (National Center for Advancing Translational Sciences (NCATS), 2011).
Values joined by “and” are separate entries in the source; they are usually repeats but may differ in a detail not shown here. Equal entries are not always repeated. The whole screen tested about 350,000 compounds, of which about 31,000 (8.9%) were called active. Inconclusive results, whose numbers are uncertain, are shown with a selection of clear calls. Calls follow the shape of the dose curve; as a rule, active = well fitted inhibition curve with a large enough effect; inconclusive = small, poorly fitted or top-dose-only effect; inactive = no such curve, though single readings can be large or run the other way. Where the call is inconclusive, the potency comes from a doubtful curve fit.

Target: Histone-lysine N-methyltransferase EHMT2 (Homo sapiens) (UniProt Q96KQ7)
Assay: qHTS Assay for Inhibitors of Histone Lysine Methyltransferase G9a; also: nearly all actives have a fitted effect of over 75% in size
Conditions: G9a H3K9 monomethylation, AlphaScreen, 2 h; activity, negative = inhibition: at 59 µM (top of the series) unless noted
How it was run: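 Compounds were preincubated with 20 nM G9a for 15 min, after which biotinylated H3K9 peptide (500 nM) and SAM (20 uM) started a 2 h room-temperature reaction. Monomethylated product was quantified by antibody-based AlphaScreen chemiluminescence.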
% is scaled to controls: 0 for no effect and ±100 for the full control effect; potency is read from the fitted curve at half-maximal effect; tags tell the direction and shape of the fitted curve.

Sequence of UniProt Q96KQ7 (Q96KQ7 whole entry, looked up): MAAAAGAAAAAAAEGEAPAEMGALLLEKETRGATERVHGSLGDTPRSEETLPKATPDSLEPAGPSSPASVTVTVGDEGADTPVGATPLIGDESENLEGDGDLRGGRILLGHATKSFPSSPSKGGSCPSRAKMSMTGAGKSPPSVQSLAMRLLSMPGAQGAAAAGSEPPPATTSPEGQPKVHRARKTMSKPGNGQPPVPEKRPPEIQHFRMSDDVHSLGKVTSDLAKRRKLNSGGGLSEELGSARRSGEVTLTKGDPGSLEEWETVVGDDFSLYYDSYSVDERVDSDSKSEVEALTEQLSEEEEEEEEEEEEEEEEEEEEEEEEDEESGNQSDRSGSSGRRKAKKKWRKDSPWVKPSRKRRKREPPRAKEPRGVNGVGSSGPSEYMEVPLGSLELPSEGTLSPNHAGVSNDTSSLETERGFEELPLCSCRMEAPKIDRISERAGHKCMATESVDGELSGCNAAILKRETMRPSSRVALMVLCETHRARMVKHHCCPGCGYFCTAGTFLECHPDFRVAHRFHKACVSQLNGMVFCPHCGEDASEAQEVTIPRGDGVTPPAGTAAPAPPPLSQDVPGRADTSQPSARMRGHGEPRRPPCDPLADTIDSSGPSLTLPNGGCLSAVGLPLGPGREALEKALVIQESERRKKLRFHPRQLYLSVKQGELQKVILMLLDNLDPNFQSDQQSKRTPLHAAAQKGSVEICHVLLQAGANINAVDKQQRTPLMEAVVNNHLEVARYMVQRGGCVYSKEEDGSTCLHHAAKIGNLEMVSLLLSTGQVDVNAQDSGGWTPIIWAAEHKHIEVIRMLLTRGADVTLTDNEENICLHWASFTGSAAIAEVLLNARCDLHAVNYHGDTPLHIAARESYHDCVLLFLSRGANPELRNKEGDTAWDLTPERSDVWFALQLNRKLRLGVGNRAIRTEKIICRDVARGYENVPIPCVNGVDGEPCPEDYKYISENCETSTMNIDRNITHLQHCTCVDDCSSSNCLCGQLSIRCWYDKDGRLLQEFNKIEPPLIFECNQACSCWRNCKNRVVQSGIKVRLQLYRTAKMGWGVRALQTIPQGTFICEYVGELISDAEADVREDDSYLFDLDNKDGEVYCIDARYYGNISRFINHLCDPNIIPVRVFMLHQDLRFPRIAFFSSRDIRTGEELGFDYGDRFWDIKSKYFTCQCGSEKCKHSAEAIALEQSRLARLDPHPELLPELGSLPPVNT

Row | Compound | activity, negative = inhibition | Potency
1 | Cc1cc2cc(CNC(=O)Cc3cccs3)ccc2n1C | inconclusive: -66.4% [inhibitor] | 
2 | N#Cc1ccccc1Cn1c(-c2cscn2)nc2ccccc21 | inactive: 8.56% [at 2.33 µM] | 
3 | CCOc1ccc(N(CC(=O)N/N=C/c2ccc(OC(C)C)cc2)S(C)(=O)=O)cc1 |  | inconclusive: 39.8 µM [inhibitor, single point]
4 | CN(C(=O)CCn1c(=S)oc2ccccc21)c1ccc(F)cc1 |  | inconclusive: 1.41 µM [inhibitor, full curve, poor fit]
5 | O=C(COc1coc(CN2CCc3ccccc32)cc1=O)N1CCCCC1 |  | active: 70.8 µM
6 | CCOC(=O)c1cc(-c2cc(OC)c(OC)c(OC)c2)nc2c1c(=O)[nH]c(=O)n2Cc1ccccc1 |  | inconclusive: 89.1 µM [inhibitor, single point]
7 | O=C(Cc1ccc(Cl)cc1)Nc1ccc(CN2CCCCC2)cc1 |  | inconclusive: 70.8 µM [inhibitor, partial curve, poor fit]
8 | Cc1ccc2c(nc3s/c(=C\c4ccc(-c5ccccc5C(=O)O)o4)c(=O)n32)c1C |  | active: 17.8 µM
9 | CCOc1ccc(Br)cc1C1NC(=O)c2c(sc3c2CCN(C)C3)N1 (stereo not drawn) |  | inconclusive: 15.8 µM [inhibitor, partial curve]
10 | CCOC(=O)c1c(C)n(C)c2ccc(O)c(CN3CCN(C)CC3)c12 |  | inconclusive: 39.8 µM [inhibitor, single point]
11 | COc1cc(OC)cc(Oc2ccc(S(=O)(=O)N3CCCCC3)cc2[N+](=O)[O-])c1 |  | active: 79.4 µM
12 | COc1ccc(-n2nc(C(=O)NCC(=O)NCCCN3CCCCCC3)c3ccccc3c2=O)cc1Cl |  | active: 25.1 µM
13 | O=C(O)c1cc(Cl)c(Cl)cc1C(=O)NCc1ccco1 |  | inconclusive: 89.1 µM [inhibitor, single point]
14 | O=C(OCc1cc(=O)n2nc(C3CC3)sc2n1)c1ccc(NC(=O)c2ccccc2F)cc1 |  | inactive
15 | Cc1ccc(C(=O)N2CCC(C)CC2)cc1NC(=O)c1nsc2ccccc12 |  | inconclusive: 6.31 µM [inhibitor, single point]
16 | CCOC(=O)CSc1nc2c(sc(=S)n2-c2ccc(CC)cc2)c(=O)[nH]1 |  | inconclusive: 89.1 µM [inhibitor, single point]
17 | CCOC(=O)c1c(/N=C/N(C)C)sc(/C=N/Nc2ccccc2)c1-c1ccccc1 |  | inconclusive: 35.5 µM [inhibitor, single point]
18 | Cc1cc(=O)oc(C)c1C(=O)Nc1ccc(N(C)C)cc1 |  | inconclusive: 50.1 µM [inhibitor, partial curve]
19 | Cc1ccc(-c2cc(C(=O)N3CCN(c4ncccn4)CC3)c3cc(Br)ccc3n2)o1 |  | inconclusive: 7.08 µM [inhibitor, single point]
20 | Cn1ncc(Cl)c1C(=O)N1CCC(Cc2ccccc2)CC1 |  | inconclusive: 89.1 µM [inhibitor, single point]
21 | CC1=NN(CCC#N)C(=O)/C1=C/c1ccc(N(C)C)cc1 |  | inconclusive: 39.8 µM [inhibitor, partial curve, poor fit]
22 | CCSc1ccc2c(c1)N(CCCN1CCN(C)CC1)c1ccccc1S2 |  | active: 8.91 µM and active: 14.1 µM

Row | Compound | activity, negative = inhibition | Potency
23 | CCc1cc(OCCCCNCc2ccccc2)ccc1Cl |  | inconclusive: 31.6 µM [inhibitor, single point]
24 | CC(C)c1ccc(NC(=O)Cc2cn(C)c3ccccc23)cc1 |  | inconclusive: 35.5 µM [inhibitor, single point]
25 | Cc1occc(=O)c1OC(=O)Nc1ccccc1 | inconclusive: -121% [inhibitor] | 
26 | CCc1ccc(/C=C2\CN(CC)Cc3c2nc2ccccc2c3C(=O)O)cc1 |  | inconclusive: 20 µM [inhibitor, partial curve, poor fit]
27 | c1ccc(-c2ccc(OCCCn3cncn3)cc2)cc1 |  | inconclusive: 2.82 µM [inhibitor, partial curve, poor fit]
28 | CCN(CC(=O)Nc1ccccc1C(F)(F)F)C(=O)CN1C(=O)NC(C)(c2ccccc2)C1=O (stereo not drawn) |  | inactive
29 | Cc1cc(C)n2nc(C(=O)OC(C)C(=O)c3ccccc3)nc2n1 (stereo not drawn) | inconclusive: -59% [inhibitor] [at 2.33 µM] | 
30 | CN(CCCC(=O)NCCc1ccccc1)S(=O)(=O)c1ccc([N+](=O)[O-])cc1 |  | inactive
31 | COCCCn1c(=N)c(C(=O)NC2CCCCC2)cc2c(=O)n3cc(C)ccc3nc21 |  | inactive
32 | Cc1ccc(S(=O)(=O)N2CCOCC2)cc1NC(=O)C(c1ccc(Cl)cc1)C(C)C (stereo not drawn) | inactive: 7.61% [at 0.501 µM] | 
33 | O=C(CSc1nnc(-c2cccnc2)n1Cc1ccco1)N1c2ccccc2Sc2ccccc21 |  | inconclusive: 3.16 µM [inhibitor, single point]
34 | Cn1c(=O)[nH]c(=O)c2c1nc(SCC(=O)O)n2CCCc1ccccc1 | inactive: 2.38% [at 2.33 µM] | 
35 | O=C1NC(Cc2ccccc2)C(=O)N1CC(=O)N1CCCc2ccccc21 (stereo not drawn) |  | inconclusive: 56.2 µM [inhibitor, partial curve, poor fit]
36 | Cc1noc(C)c1C(=O)OCC(=O)Nc1ccc(C(N)=O)cc1 |  | inactive
37 | COc1ccc(C(C)(C)C)cc1NC(=O)COC(=O)c1ccc([N+](=O)[O-])o1 |  | active: 39.8 µM
38 | CC1CCCN(C(=O)COC(=O)c2ccc3[nH]c4c(c3c2)CCCC4)C1 (stereo not drawn) |  | inconclusive: 44.7 µM [inhibitor, partial curve]
39 | CCN(CC)c1ccc(Nc2nc(-c3cccnc3)cs2)cc1 |  | active: 0.891 µM
40 | CC(C)OCCCNC(=O)CCCN1C(=O)CCn2nc(-c3cccn3C)cc21 |  | inactive
41 | Cn1nc(-c2ccccc2)cc1NC(=O)Nc1ccc(C(C)(C)C)cc1 |  | inconclusive: 39.8 µM [inhibitor, single point]
42 | Oc1ccc(-c2nccc(-c3ccc(Br)cc3)n2)cc1 |  | inconclusive: 1.41 µM [inhibitor, single point]
43 | COCC(=O)c1[nH]c2ccccc2c1C |  | inconclusive: 50.1 µM [inhibitor, partial curve]
